Drawing on the supplement of paper PMC4604168 (melanoma cell lines), this text covers cell count for 16 compounds.

The structures appear in SMILES notation. The list shows a part of the results. Many values rest on one well or one pass, so single values are uncertain.
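Also: cells treated in 1,536-well plates, then fixed and DAPI-stained, with nuclei counted from automated high-throughput microscope images.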

The assay deals with 501Mel. Briefly: cell count relative to DMSO control; melanoma cells; higher = more viable cells. To be noted: library dose: standard library concentration; 72 h.
Regarding `Cc1ccc(NC(=O)c2cccc(N(C)C)c2)cc1NC(=O)c1ccc(O)cc1` + O=c1cc(-c2cccc3c2Sc2ccccc2S3)oc(N2CCOCC2)c1 [KU55933] (first compound 10 µM, partner dose 5 µM), the cell count worked out at 83%. As for `CC(C)(C)c1cnc(CSc2cnc(NC(=O)C3CCNCC3)s2)o1` + CCCCCCCCCCCC1=C(O)C(=O)C=C(O)C1=O [Embelin] (first compound 0.05 µM, partner dose 6 µM), the figure is 75.1%; as for `CC(C)(C)c1cnc(CSc2cnc(NC(=O)C3CCNCC3)s2)o1` + CC(C)CCN1c2nc(Nc3cc(F)c(O)c(F)c3)ncc2N(C)C(=O)C1C [BID1870] (first compound 0.05 µM, partner dose 1 µM), 70.7%; as for `NC(=O)c1ccc(N(C(N)=O)c2c(F)cccc2F)nc1-c1ccc(F)cc1F` + Oc1cc(-c2nc(-c3ccccc3)[nH]c2-c2ccncc2)ccc1Cl [L779450] (first compound 2 µM, partner dose 1 µM), 72%. `CN(NC(=O)CC(=O)NN(C)C(=S)c1ccccc1)C(=S)c1ccccc1` + O=c1cc(-c2cccc3c2Sc2ccccc2S3)oc(N2CCOCC2)c1 [KU55933] (first compound 0.03 µM, partner dose 5 µM) showed a cell count of 7.44%. Under `NC(=O)c1ccc(N(C(N)=O)c2c(F)cccc2F)nc1-c1ccc(F)cc1F` + O=S(=O)(c1ccccc1)N(CC(F)(F)F)c1ccc(C(O)(C(F)(F)F)C(F)(F)F)cc1 [T0901317] (first compound 2 µM, partner dose 7 µM) stands 71.6%.

`Cc1ccc(NC(=O)c2cccc(N(C)C)c2)cc1NC(=O)c1ccc(O)cc1` + COc1ccc2c(c1)CCC1C2CCC2(C)C(NCCCCCCN3C(=O)C=CC3=O)CCC12 [U73122] (first compound 10 µM, partner dose 2 µM) had a cell count of 77.4%. `CCc1ccc(CCOc2ccc(CC3SC(=O)NC3=O)cc2)nc1` (stereo unspecified) [pioglitazone] + O=S(=O)(c1ccccc1)N(CC(F)(F)F)c1ccc(C(O)(C(F)(F)F)C(F)(F)F)cc1 [T0901317] (first compound 10 µM, partner dose 7 µM) gave a cell count of 72.6%. In turn, `COc1cc2c(Oc3ccc4[nH]c(C)cc4c3F)ncnc2cc1OCCCN1CCCC1` [cediranib] + Oc1cc(-c2nc(-c3ccccc3)[nH]c2-c2ccncc2)ccc1Cl [L779450] (first compound 2 µM, partner dose 1 µM) gave a cell count of 56.3%. Consider `Cc1ccc(NC(=O)c2cccc(N(C)C)c2)cc1NC(=O)c1ccc(O)cc1` + COc1ccc(COc2ccc(Cc3cnc(N)nc3N)cc2OC)cc1 [GW2580] (first compound 10 µM, partner dose 5 µM), for which the cell count came to 62.2%. Under `COc1cc2c(Oc3ccc4[nH]c(C)cc4c3F)ncnc2cc1OCCCN1CCCC1` [cediranib] + COc1ccc2c(c1)CCC1C2CCC2(C)C(NCCCCCCN3C(=O)C=CC3=O)CCC12 [U73122] (first compound 2 µM, partner dose 2 µM) stands 87.5%; under `CC(C)(C)c1cnc(CSc2cnc(NC(=O)C3CCNCC3)s2)o1` + Oc1nc(-c2ccc(C(F)(F)F)cc2)nc2c1CSCC2 [XAV939] (first compound 0.05 µM, partner dose 10 µM), 82.9%; under `COc1cc2c(Oc3ccc4[nH]c(C)cc4c3F)ncnc2cc1OCCCN1CCCC1` [cediranib] + O=C(O)C(=O)Nc1sc2c(c1C(=O)O)CCNC2 [TCS401] (first compound 2 µM, partner dose 8.33333 µM), 77%. `Cc1ccc(NC(=O)c2cccc(N(C)C)c2)cc1NC(=O)c1ccc(O)cc1` + COC(=O)c1sccc1S(=O)(=O)Nc1ccc(Nc2ccccc2)cc1OC [GSK0660] (first compound 10 µM, partner dose 5 µM) came in with a cell count of 74%. As for `CC(C)(C)c1cnc(CSc2cnc(NC(=O)C3CCNCC3)s2)o1` + CCc1ccc(CCOc2ccc(CC3SC(=O)NC3=O)cc2)nc1 [pioglitazone] (first compound 0.05 µM, partner dose 10 µM), the figure is 112%. Consider `CCc1ccc(CCOc2ccc(CC3SC(=O)NC3=O)cc2)nc1` (stereo unspecified) [pioglitazone] + COc1cc2ncnc(Nc3ccc(Oc4ccccc4)cc3)c2cc1OC [SrcI1] (first compound 10 µM, partner dose 10 µM), for which the cell count worked out at 70.6%.
